The source of these data is paper PMC5575267, “A novel function of cIAP1 as a mediator of CHIP-driven eIF4E regulation” (Scientific Reports, 2017).

Protein sequences, listed by entry. Tags and fused reporters are not part of them. Lines headed by an entry give the natural chain unless they say otherwise; changes in a name come on top.
UniProt P06730: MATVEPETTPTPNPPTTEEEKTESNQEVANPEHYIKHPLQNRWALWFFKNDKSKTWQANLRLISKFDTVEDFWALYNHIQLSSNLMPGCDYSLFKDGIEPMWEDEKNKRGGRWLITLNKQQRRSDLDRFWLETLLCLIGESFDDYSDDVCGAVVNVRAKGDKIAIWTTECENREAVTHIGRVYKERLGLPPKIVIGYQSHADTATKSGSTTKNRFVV
UniProt Q13490: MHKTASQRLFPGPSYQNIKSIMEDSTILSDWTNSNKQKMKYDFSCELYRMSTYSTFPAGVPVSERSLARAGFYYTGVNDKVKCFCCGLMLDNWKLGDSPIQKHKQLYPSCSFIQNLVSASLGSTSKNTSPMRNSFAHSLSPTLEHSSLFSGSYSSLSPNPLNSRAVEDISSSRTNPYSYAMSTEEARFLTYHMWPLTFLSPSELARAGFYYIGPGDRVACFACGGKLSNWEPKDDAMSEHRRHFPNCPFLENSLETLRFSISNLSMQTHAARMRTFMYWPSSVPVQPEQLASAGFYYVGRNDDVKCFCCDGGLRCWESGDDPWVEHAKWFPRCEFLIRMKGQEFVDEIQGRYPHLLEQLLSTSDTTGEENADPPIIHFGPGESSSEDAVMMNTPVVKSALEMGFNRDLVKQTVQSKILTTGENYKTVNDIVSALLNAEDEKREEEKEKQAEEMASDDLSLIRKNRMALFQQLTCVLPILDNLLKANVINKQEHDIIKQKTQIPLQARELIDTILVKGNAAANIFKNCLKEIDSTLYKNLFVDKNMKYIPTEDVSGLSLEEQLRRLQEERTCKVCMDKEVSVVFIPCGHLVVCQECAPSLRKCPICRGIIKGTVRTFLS
UniProt Q9UNE7: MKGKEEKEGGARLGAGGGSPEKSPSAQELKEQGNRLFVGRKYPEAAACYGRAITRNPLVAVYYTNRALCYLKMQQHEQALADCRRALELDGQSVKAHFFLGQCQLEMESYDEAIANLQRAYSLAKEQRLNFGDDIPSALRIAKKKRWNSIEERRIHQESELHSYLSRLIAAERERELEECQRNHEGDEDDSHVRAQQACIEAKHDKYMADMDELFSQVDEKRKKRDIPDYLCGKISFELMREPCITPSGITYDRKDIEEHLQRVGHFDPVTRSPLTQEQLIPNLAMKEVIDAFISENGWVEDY
UniProt P98170: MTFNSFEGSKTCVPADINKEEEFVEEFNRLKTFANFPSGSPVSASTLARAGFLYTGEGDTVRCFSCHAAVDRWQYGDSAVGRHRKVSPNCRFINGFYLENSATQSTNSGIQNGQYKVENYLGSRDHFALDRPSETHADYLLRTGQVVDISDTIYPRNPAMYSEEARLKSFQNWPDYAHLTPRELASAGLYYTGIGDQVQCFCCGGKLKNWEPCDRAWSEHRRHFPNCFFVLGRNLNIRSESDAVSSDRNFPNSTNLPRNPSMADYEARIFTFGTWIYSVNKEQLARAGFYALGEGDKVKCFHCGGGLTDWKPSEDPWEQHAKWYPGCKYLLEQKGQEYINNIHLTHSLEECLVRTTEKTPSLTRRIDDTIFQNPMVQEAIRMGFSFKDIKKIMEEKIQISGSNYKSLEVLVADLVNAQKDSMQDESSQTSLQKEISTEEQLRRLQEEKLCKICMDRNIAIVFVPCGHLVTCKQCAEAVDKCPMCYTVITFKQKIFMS
UniProt Q13489: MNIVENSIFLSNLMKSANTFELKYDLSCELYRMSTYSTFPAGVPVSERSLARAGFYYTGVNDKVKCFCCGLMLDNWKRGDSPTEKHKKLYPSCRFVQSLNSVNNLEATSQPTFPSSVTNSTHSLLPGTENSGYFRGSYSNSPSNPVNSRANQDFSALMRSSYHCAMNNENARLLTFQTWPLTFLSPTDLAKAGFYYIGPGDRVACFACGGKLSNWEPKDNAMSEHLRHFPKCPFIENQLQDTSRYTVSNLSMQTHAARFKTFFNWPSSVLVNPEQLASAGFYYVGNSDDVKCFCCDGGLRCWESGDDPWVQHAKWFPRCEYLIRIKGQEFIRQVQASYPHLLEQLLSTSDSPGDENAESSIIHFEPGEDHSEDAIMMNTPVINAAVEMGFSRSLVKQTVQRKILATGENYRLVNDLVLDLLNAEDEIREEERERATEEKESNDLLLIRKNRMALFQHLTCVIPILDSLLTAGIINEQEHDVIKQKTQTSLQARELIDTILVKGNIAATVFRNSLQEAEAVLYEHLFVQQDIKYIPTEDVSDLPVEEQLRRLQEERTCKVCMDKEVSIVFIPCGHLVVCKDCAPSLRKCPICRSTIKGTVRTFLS

These are yes or no findings as the source states them, for the method shown. For part of these data: In cells and extracts the contact can be indirect. Some binding calls cover weakened binding; strength is not graded here. For part of these data: Tags and fused reporters may be left off the sequences shown.

In test [1] the target is Myc- and His-tagged eIF4E protein (eIF4E-MycHis) (UniProt P06730). Put plainly: co-IP; HEK 293 cells co-transfected with eIF4E-MycHis and one 6Myc-IAP; lysate precipitated with anti-His antibody, WB with anti-Myc antibody.
Test [2] deals with 6Myc-cIAP1 WT (C1) (human) (UniProt Q13490). The test is described as follows: co-IP; HEK 293 cells co-transfected with 6Myc-cIAP1 and HA-CHIP WT or K30A; lysate precipitated with anti-Myc antibody, WB with anti-HA antibody.
Another test concerns the target GST-CHIP K30A (UniProt Q9UNE7). The test is described as follows: pull-down; GST pull-down: GST or GST fusion protein on glutathione beads incubated with 6His-tagged protein in 100 mM Tris pH 8.0, 100 mM NaCl, 2 mM EDTA, 5% glycerol, 2 h at 4 °C; WB with anti-His antibody; both purified.

6Myc-XIAP (from UniProt P98170 1-497): in test [1], the binding result is listed as “no binding”.
In the case of 6Myc-cIAP2 (from UniProt Q13489 1-604), the binding result in test [1] is “no binding”.
As for “HA-CHIP K30A (from UniProt Q9UNE7 1-303)”, the binding entry in test [2] was “binds”.
On the same count and under the same terms, as for HA-CHIP WT (from UniProt Q9UNE7 1-303), the entry is “binds”.
Consider eIF4E-6His (from UniProt P06730 1-217), for which the binding result with GST-CHIP K30A was “no binding”.

B1: 6Myc-ML-IAP (protein, UniProt Q96CA5 1-298)
chain: MGPKDSAKCLHRGPQPSHWAAGDGPTQERCGPRSLGSPVLGLDTCRAWDHVDGQILGQLRPLTEEEEEEGAGATLSRGPAFPGMGSEELRLASFYDWPLTAEVPPELLAAAGFFHTGHQDKVRCFFCYGGLQSWKRGDDPWTEHAKWFPSCQFLLRSKGRDFVHSVQETHSQLLGSWDPWEEPEDAAPVAPSVPASGYPELPTPRREVQSESAQEPGGVSPAEAQRAWWVLEPPGARDVEAQLRRLQEERTCKVCLDRAVSIVFVPCGHLVCAECAPGLQLCPICRAPVRSRVRTFLS
B1: the binding entry in test [1] was “no binding”.
